Laboratory results reported in the RNAGym collection of RNA variant scans (doi:10.7554/elife.90254).
The source gives no read counts; variants with many changes may rest on few reads.

B1: LINE1-mini (parent)
chain: GGCAGAGCUCAACACAGCGUGGCAAAGUGGCUGUGGCUAGACUGCC

Variants of: B1
Experiment: self-cleavage, relative activity (ratio to wild type); higher = more cleavage; in vitro, sequencing; the parent is a self-cleaving ribozyme

Variant	self-cleavage
GGCAGAGGUCAACACAUUGUGGCAAAGUGGCUGUCGCUAGACUGCC [C8G G17U C18U G35C]	0.02
GGCAGAGGUCAACACAGCGUGGAAAAGUGGCUGUGCCUAGACUGCC [C8G C23A G36C]	0.1
GGCAGAGGUCAACACAGGGUAGCAAAGUGGCUGUGACUUGACUGCC [C8G C18G G21A G36A A39U]	0.01
GGCAGAGGUCAACACAGCGUGGCAAAGUGGCUGUGACUAGACUGAC [C8G G36A C45A]	0.13
GGCAGAGGUCAACACAGCGUGGCAAAGUGGCUUUGCCUAGACUGCC [C8G G33U G36C]	0.16
GGCAGAGGUCAACACAGCGUGUGAAAGUGACUGUGGCUAGACUGCC [C8G G22U C23G G30A]	0.2
GGCAGAGGUCAACAUAGCGUGGCAAAGUGGCUGUGGCUAGACUGAU [C8G C15U C45A C46U]	0.3
GGCAGAGGUCAACACAGCGUGUCAAAAUGGCUGUGGCUAUACUGCC [C8G G22U G27A G40U]	0.02
GGCAGAGGUCAACACACCGUGGCAAAGUGGCUGUGGCUAGACGGCC [C8G G17C U43G]	0.11
GGCAGAGGUCAACACAGCGUAGAAAAGUGGCUGUGGCUAGACUGCC [C8G G21A C23A]	0.18
GGCAGAGGUCAACACAGCGUGGGAGCUUGACUCUGGCUAGACUGCA [C8G C23G A25G A26C G27U G30A G33C C46A]	0.01
GGCAGAGGACAACACAGCGUGGCAAAGUGGCUGUGGCUAGCCUGCC [C8G U9A A41C]	0.08
GGCAGAGGUCAACACAGCGUGUCAAAGUGGCUGUGACUAGACUGCC [C8G G22U G36A]	0.07
GGCAGAGGUCAACACAGCGUGGUAAAUUGGCUAUGGCUAGACUGCC [C8G C23U G27U G33A]	0.03
GGCAGAGGUCAACACAGCGUAGCAAAGUGGCUCUGGCUAGACUGCC [C8G G21A G33C]	0
GGCAGAGGUCAACACAGCGUAGCAAAGUGGCUCUGGCUAGACUGCA [C8G G21A G33C C46A]	0.05
GGCAGAGGUCAACACAGACUGGCAAAGUGGCUGUGGCUAGACUGCC [C8G C18A G19C]	0.06
GGCAGAGGUCAACACAGCGUGGCAAAUUGGCUGUGGGUAGACUGCC [C8G G27U C37G]	0.05
GGCAGAGGUCAACACAGCGUGGCAAAGUGUCUGUGGCUGGACUGCU [C8G G30U A39G C46U]	0.04

Variant	self-cleavage
GGCAGAGGUCAACACAGCGUGGCAAAGUGGCUGUGGCUAGAGUGCA [C8G C42G C46A]	0.03
GGCAGAGGUCAACACAGCGUCGCAAAGUGGCUGUGGCUACACUGCC [C8G G21C G40C]	0.07
GGCAGAGGUCAACACAGCUUGGCAAAGUUGCUGUGGCUACACUGCA [C8G G19U G29U G40C C46A]	0.09
GGCAGAGGUCAACACAGCGUGUAAAAGUGGCUGUGGCUACACUGCC [C8G G22U C23A G40C]	0.06
GGCAGAGGUCAACAUAGCGUGGCAAAGUGGCUGUGGCUACACUGCC [C8G C15U G40C]	0.04
GGCAGAGGUCAACACAUCUUGGCAAACUGGCUGUGGAUAGACUGCC [C8G G17U G19U G27C C37A]	0.01
GGCAGAGGUCAACACAUCGUGGCAAAGUGGCUGUGGCUAUACUGCC [C8G G17U G40U]	0.01
GGCAGAGGUCAACACAGCAUGGCAAAGUCACUGUGGCUAGACUGCC [C8G G19A G29C G30A]	0.04
GGCAGAGGUCAACAUAGCGUGGCAAAGUAGCUGUGGCUAGACUGCA [C8G C15U G29A C46A]	0.05
GGCAGAGGUCAACACAGCGUGGCAAAGUGACCGUGGCUAGACUGCC [C8G G30A U32C]	0.04
GGCAGAGGUCAACACACCGUGGCAAAGUGGCUGUGGCUAGACUGCU [C8G G17C C46U]	0.02
GGCAGAGGUCAACACAGCGUGGCAAACUGGCUUUGGCUAGACUGCC [C8G G27C G33U]	0.04
GGCAGAGGUCAACACAGCGUGGUACAGUGGUUGUGGCUAGACUGCC [C8G C23U A25C C31U]	0.1
GGCAGAGGUCAACACAGAGUGGCAAAGUGUCUGUGGCUAGACUGCC [C8G C18A G30U]	0.08
GGCAGAGGUCAACACAUCGUGGCAAAGUGGCUGUGGCUAGACAGGC [C8G G17U U43A C45G]	0.02
GGCAGAGGUCAACACAGCGUGGCAAAGUGGCUGUGGCUACAGUGUC [C8G G40C C42G C45U]	0.03
GGCAGAGGUCAACACAGCGUAGCAAAGUGGCUGUUGCUAGACUGCC [C8G G21A G35U]	0.02
GGCAGAGGUCAACACAGCAUGGCAAAGUGGUUGUGGCUACACUGCC [C8G G19A C31U G40C]	0.04
GGCAGAGGUCAACACAGCGUCGCAAAGUUGCUGUGACUGGACUGCC [C8G G21C G29U G36A A39G]	0.01

Variant	self-cleavage
GGCAGAGGUCAACACAGGGUGCCAAAGUGGCCGUGGCUAGACUGCC [C8G C18G G22C U32C]	0.02
GGCAGAGGUCAACACAGCGUGGCAAAUUGGCUGUGGCUAGACUCCU [C8G G27U G44C C46U]	0.04
GGCAGAGGUCAACACAGCGUGCCAAAUUGCCUGUGGCUAGACUACC [C8G G22C G27U G30C G44A]	0.04
GGCAGAGGUCAACACAGCGUGGGAAAGUGGCUGUGGCUAGACCGCC [C8G C23G U43C]	0.02
GGCAGAGGUCAACACAGUGUGGCAAAGUGGCUGUGGCUAGAUUGCC [C8G C18U C42U]	0.03
GGCAGAGGUCAACACAGCGUUGCAAAGUGGCUGUCGCUAGACUGCC [C8G G21U G35C]	0.04
GGCAGAGGUCAACACAGCUUGGCAAAGGGUCUGUGGCUAGACUGCC [C8G G19U U28G G30U]	0.23
GGCAGAGGUCAACACAUCGUGGCAAAGUGGCCGUGGCUAGACUGCC [C8G G17U U32C]	0
GGCAGAGGUCAACACAGCGUUGCAAAGUGGUUGUGGCUAGACUGCC [C8G G21U C31U]	0.22
GGCAGAGGUCAACACAUCGGGGCAAAGUGGCUGUGGCUAGACUGCC [C8G G17U U20G]	0.02
GGCAGAGGUCAACACAGCCUGGCAAAGUGGCUGUGGCUAGACUACU [C8G G19C G44A C46U]	0.02
GGCAGAGGACACCACAGCGUGGCAAAGUGGCUGUGGCUAGACUGCC [C8G U9A A12C]	0.06
GGCAGAGGUCAACACAGCGUGACAAAGUGGCUGUGGCUAGACUGUC [C8G G22A C45U]	0.07
GGCAGAGGUCAACACAGCGUGGCAAAGUUGCUGUGGCUAUACUGCC [C8G G29U G40U]	0.05
GGCAGAGGUCAACACAGCGUGGCAAAUUGGCUGUAGCUAGCCUGCU [C8G G27U G35A A41C C46U]	0.01
GGCAGAGGACAACACAGCGUGGCAAUGUGGCUGUGGCUAGACUGCG [C8G U9A A26U C46G]	0.16
GGCAGAGGUCAACACAGCGUGGCAAAGUGGCUGUGGGUAUACGGCC [C8G C37G G40U U43G]	0.04
GGCAGAGGUCAACACAGCGUGGUAAAGGGGCUGUGGCUAGACUGCC [C8G C23U U28G]	0.02
